Measurements published in the supplement of paper PMC4996465.

Legend:
KB3-1 = assay: viability (% of DMSO control); higher = more viable cells
Description: (§1)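 Eleven-dose screen of the NCATS MIPE 3 library on cells without co-treatment; CellTiter-Glo after 48 h, as % of DMSO wells.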

Nalm-6 [1] = assay: as above
Description: as §1

Nalm-6 [2] = assay: log AC50 of viability decrease (48 h) (log10 M); higher = less potent
Description: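 Eleven-dose screen of the NCATS MIPE 3 library on cells without co-treatment; CellTiter-Glo after 48 h. AC50 from the curve fit; only inhibitory curves of the better fit classes are listed.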

Compound	viability (KB3-1; 0.00078 µM)	viability (KB3-1; 0.00234 µM)	viability (KB3-1; 0.00702 µM)	viability (KB3-1; 0.0211 µM)	viability (KB3-1; 0.0632 µM)	viability (KB3-1; 0.19 µM)	viability (KB3-1; 0.569 µM)	viability (KB3-1; 1.71 µM)	viability (KB3-1; 5.12 µM)	viability (KB3-1; 15.4 µM)	viability (KB3-1; 46.1 µM)	viability (Nalm-6 [1]; run: 1, 0.00078 µM)	viability (Nalm-6 [1]; run: 1, 0.00234 µM)	viability (Nalm-6 [1]; run: 1, 0.00702 µM)	viability (Nalm-6 [1]; run: 1, 0.0211 µM)	viability (Nalm-6 [1]; run: 1, 0.0632 µM)	viability (Nalm-6 [1]; run: 1, 0.19 µM)	viability (Nalm-6 [1]; run: 1, 0.569 µM)	viability (Nalm-6 [1]; run: 1, 1.71 µM)	viability (Nalm-6 [1]; run: 1, 5.12 µM)	viability (Nalm-6 [1]; run: 1, 15.4 µM)	viability (Nalm-6 [1]; run: 1, 46.1 µM)	viability (Nalm-6 [1]; run: 2, 0.00078 µM)	viability (Nalm-6 [1]; run: 2, 0.00234 µM)	viability (Nalm-6 [1]; run: 2, 0.00702 µM)	viability (Nalm-6 [1]; run: 2, 0.0211 µM)	viability (Nalm-6 [1]; run: 2, 0.0632 µM)	viability (Nalm-6 [1]; run: 2, 0.19 µM)	viability (Nalm-6 [1]; run: 2, 0.569 µM)	viability (Nalm-6 [1]; run: 2, 1.71 µM)	viability (Nalm-6 [1]; run: 2, 5.12 µM)	viability (Nalm-6 [1]; run: 2, 15.4 µM)	viability (Nalm-6 [1]; run: 2, 46.1 µM)	log AC50 of viability decrease (Nalm-6 [2]; run: 1)	log AC50 of viability decrease (Nalm-6 [2]; run: 2)
CN1C(=O)/C(=C(NC2=CC=C(I)C=C2F)\C3=C1\N=C/N(C[C@@H](O)CO)C3=O)F [TAK-733]	97.5%	98%	94.7%	104%	99.1%	96.8%	94.7%	92%	88.5%	94.7%	53.7%	102%	103%	105%	99.8%	99.4%	92.1%	90.9%	89.1%	89.5%	85.6%	38.9%	100%	94.1%	90.6%	95.9%	95.6%	86.1%	88.4%	90%	87.8%	75.9%	0.817%	-4.63	-4.63
CC/C(=C(\c1ccccc1)c1ccc(OCCN(C)C)cc1)c1ccccc1 [Tamoxifen]	108%	107%	106%	104%	106%	108%	103%	101%	89.4%	96.7%	2.37%	121%	125%	122%	122%	118%	128%	126%	115%	103%	94.3%	-2.23%	106%	108%	111%	111%	107%	109%	110%	97.5%	103%	90.3%	-1.27%	-4.68	-4.63
COc1cc2c(N3CCN(C(=O)Nc4ccc(OC(C)C)cc4)CC3)ncnc2cc1OCCCN1CCCCC1 [Tandutinib]	97.3%	99.9%	98.6%	97.5%	97.5%	101%	100%	100%	97.6%	95.5%	13.7%	96.1%	106%	107%	105%	112%	110%	111%	102%	99.7%	71.9%	3.18%	104%	104%	109%	109%	105%	111%	110%	104%	104%	80.9%	3.31%	-4.73	-4.68
CCCc1nc2c(C)cc(-c3nc4ccccc4n3C)cc2n1Cc1ccc(-c2ccccc2C(=O)O)cc1 [Telmisartan]	100%	99.3%	104%	102%	106%	102%	104%	104%	107%	100%	102%	100%	108%	108%	109%	109%	111%	114%	108%	106%	93.5%	46.5%	106%	109%	102%	105%	106%	106%	109%	106%	104%	87.9%	44.1%	-4.68	-4.58
C/C(O)=C(\C#N)C(=O)Nc1ccc(C(F)(F)F)cc1 [Teriflunomide]	98.8%	102%	97.5%	101%	100%	101%	96.7%	93%	94.9%	92.6%	17.8%	95.2%	99.8%	99.8%	104%	103%	105%	98.4%	89.8%	61.7%	44.4%	6.17%	96.1%	99.5%	109%	98%	102%	94.6%	101%	93.2%	79.4%	53.6%	20.8%	-4.83	-4.78
O=C(O)C(=O)c1cn(Cc2ccccc2)c2ccc(-c3ccc(OC(F)(F)F)cc3)cc12 [Tiplasinin]	94.9%	100%	93.7%	96.2%	92.4%	94.1%	93.7%	97.1%	96.4%	86.2%	61.4%	110%	112%	107%	110%	126%	117%	113%	111%	111%	94.2%	22.8%	107%	115%	113%	110%	116%	106%	108%	104%	107%	96.6%	28.1%	-4.68	-4.63
COc1cc2nccc(Oc3ccc(NC(=O)Nc4cc(C)on4)c(Cl)c3)c2cc1OC [Tivozanib]	105%	104%	104%	107%	105%	106%	110%	101%	99.8%	96.3%	26.1%	104%	100%	104%	118%	104%	110%	108%	86%	80.6%	54.5%	11.9%	109%	108%	110%	109%	107%	111%	99.7%	102%	73%	77%	6.29%	-4.78	-4.73
CN1C(=O)C(=C/2N(C(=O)N(C3CC3)C(=O)C2=C1/NC4=CC=C(I)C=C4F)C5=CC=CC(=C5)NC(C)=O)\C [Trametinib]	95.7%	95.4%	91.3%	98.6%	94.1%	86.8%	87.8%	86%	88.5%	88%	37%	105%	97.9%	98.5%	96.5%	95.3%	98%	99.4%	85.9%	85.9%	79.2%	1.57%	89.1%	93.2%	87.5%	99.7%	94.9%	98.2%	94.5%	98.8%	90.3%	88.6%	1.55%	-4.63	–
FC1=CC=C(SC/2=N/N3\C=N/C(=O)/C(=C3/C=C2)C4=C(Cl)C=CC=C4Cl)C(=C1)F [VX-745]	98.1%	97.9%	95.8%	103%	103%	94.2%	101%	92.7%	92%	92.6%	68.3%	111%	117%	110%	108%	113%	107%	104%	95.1%	86.5%	82.2%	56.2%	106%	107%	107%	106%	105%	99.3%	95.4%	104%	90.1%	94.5%	65.7%	-4.83	–
COc1cc2c(Nc3ccc(Br)cc3F)ncnc2cc1OCC1CCN(C)CC1 [Vandetanib]	100%	107%	102%	101%	102%	104%	102%	102%	101%	96%	18.7%	109%	118%	120%	117%	120%	121%	124%	109%	107%	90.8%	5.18%	110%	107%	107%	108%	110%	105%	109%	100%	93.2%	82.9%	4.16%	-4.68	-4.68
C[C@]1(c2nc3c(C(N)=O)cccc3[nH]2)CCCN1 [Veliparib]	104%	108%	106%	108%	110%	110%	112%	113%	100%	106%	72.7%	108%	114%	94.9%	106%	111%	117%	109%	115%	109%	92.6%	69.4%	103%	105%	101%	96.2%	103%	102%	104%	96.4%	101%	95.3%	68.2%	-4.78	–
CCCS(=O)(=O)Nc1ccc(F)c(C(=O)c2c[nH]c3ncc(-c4ccc(Cl)cc4)cc23)c1F [Vemurafenib]	99.6%	102%	103%	99.5%	103%	107%	98.8%	104%	98.7%	92.7%	52.6%	123%	118%	113%	122%	122%	122%	113%	106%	105%	95.2%	2.78%	107%	104%	106%	112%	104%	103%	102%	101%	104%	85.2%	3.35%	-4.63	-4.63

Viability of KB3-1 and Nalm-6 cells after 48 h of drug alone (CellTiter-Glo), 11 doses over about 4.5 log units. % of DMSO wells, lower = more cell loss; AC50 from the fitted curve, lower = more potent. No active / inactive call. Nalm-6 was screened in two runs. AC50 is listed only for well-fitted inhibitory curves. KB3-1 is a HeLa-derived carcinoma line, Nalm-6 a B-cell precursor leukaemia line.
